Part of at least one peptide drawing is inferred or uncertain, most often the ends. No end group written: not given here.
Columns and labels:
[1] = test system: E. coli ML-35p; assay: Kinetics of permeabilization of the outer bacteria membrane (nitrocefin); assay type: cell-based, Escherichia coli
Experimental: (§1) The ability of the antimicrobial peptides for the respective permeabilization of the outer and inner bacteria membrane was tested by way of example on E. coli ML-35p (made available by Dr. R. E. Lehrer, Center for Health Sciences, Los Angeles, Calif., USA). The peptides were incubated in serial dilution with E. coli ML-35p and the time-dependent release of cell-internal components was measured in a slightly modified protocol according to Ericsson et al. (2002). For this purpose, the bacteria were cultured in Luria-Bertani (LB) medium with 100 μg/ml ampicillin (Fluka, Taufkirchen, Germany) until reaching an optical density of 0.4 at 600 nm wavelength. Then, the cells were washed three times by centrifugation at 4000 g for 1 min and subsequent up-take in 10 mM HEPES buffer pH 7.2. Finally, the cells were diluted to an optical density of 0.3 at 600 nm wavelength. To measure the permeabilization of the outer membrane, nitrocefin (Merck, Darmstadt, Germany) was diluted in HEPES buffer to a concentration of 60 μg/ml. The antimicrobial peptides were diluted in HEPES buffer to an end concentration of 12 μM, 24 μM, 48 μM and 96 μM end concentration. In the next step, 50 μl of nitrocefin were admixed with 50 μl of antimicrobial peptide and 50 μl of bacteria suspension such that an end concentration of 20 μg/ml of nitrocefin, 4 μM to 32 μM of antimicrobial peptide and bacteria with an optical density of 0.1 to 600 nm were present. The samples were mixed and the absorption at 500 nm wavelength was measured directly over a period of at least 90 min at 37° C. with regular shaking in a FLUOstar omega Microplate Reader (BMG Labtech, Ortenberg, Germany). The investigation of the permeabilization of the inner membrane was carried out in the same way except that instead of the nitrocefin accordingly 0-nitrophenyl-beta-D-galactoside (ONPG, Sigma-Aldrich) in an end concentration of 100 μg/ml was used and the absorption change was determined at a wavelength of 420 nm. The control used was samples without antimicrobial peptide, the positive control used for the membrane permeabilization was polymyxin B (Sigma-Aldrich) in an end concentration of 5 μM. For the data evaluation, firstly the measurement values of the corresponding negative controls were deducted from the measurement values of the samples, and the difference was then divided by the corresponding measurement values of the permeabilization control. Then, a graphical evaluation was carried out, the calculated values being plotted against the peptide concentration and being fitted with the help of the Origin Pro 8.1 G Software (OriginLab) according to a sigmoidal model.
(§2) As comparison parameter between the peptides, the times were ascertained from this at which 50% of the final signal level was reached. For this purpose, the equation with the percentage membrane permeabilization y, the time x in minutes, the lower plateau A1, the upper plateau A2, the point of inflection Log X0 and the Hill incline p
(§3) [formula] was used. The calculation of the parameters A1, A2, Log X0 and p was performed by the program by reference to the compensating curve. Further resolution of equation 5.1 for the case y=50 then produced for x the desired time at which the half-maximum signal level was reached.

[2] = test system: E. coli ML-35p; assay: Kinetics of permeabilization of the inner bacteria membrane (ONPG); assay type: cell-based, Escherichia coli
Experimental: as §1, with “model. As representative examples, FIGS. 4 and 5 show the graphical evaluation for the kinetic investigation of the permeabilization of the outer E. coli bacteria membrane for the peptides N4 (FIG. 4) and O1 (FIG. 5).” for “model.”
as §2, §3

Row | Substance | Outer membrane, time to 50% of final signal ([1]; 4 μM peptide) [min] | Outer membrane, time to 50% of final signal ([1]; 8 μM peptide) [min] | Outer membrane, time to 50% of final signal ([1]; 16 μM peptide) [min] | Outer membrane, time to 50% of final signal ([1]; 32 μM peptide) [min] | Inner membrane, time to 50% of final signal ([2]; 4 μM peptide) [min] | Inner membrane, time to 50% of final signal ([2]; 8 μM peptide) [min] | Inner membrane, time to 50% of final signal ([2]; 16 μM peptide) [min] | Inner membrane, time to 50% of final signal ([2]; 32 μM peptide) [min]
1 | GSGILILIKRK [M5] | >90 | >90 | >90 | >90 | >90 | >90 | >90 | >90
2 | ILIKRK [N7, ILIKRK] | >90 | >90 | >90 | >90 | >90 | >90 | >90 | >90
3 | ILILIKRK [N5] | >90 | >90 | 48 | 37 | >90 | >90 | >90 | >90
4 | ILILILILKRK [M3] | >90 | >90 | 42 | 33 | >90 | >90 | >90 | >90
5 | KKKFFFFFKKK [S8] | >90 | >90 | >90 | 20 | >90 | >90 | >90 | 64
6 | KKKIIIIIKKK [S2] | 26 | 23 | 21 | 21 | >90 | 62 | 58 | 51
7 | KKKKKIIIIIDDDDD [D1] | >90 | >90 | >90 | >90 | >90 | >90 | >90 | >90
8 | KKKKKIIIIIDDDDK [D8] | >90 | >90 | >90 | >90 | >90 | >90 | >90 | >90
9 | KKKKKIIIIIDDDKK [D7] | >90 | >90 | >90 | >90 | >90 | >90 | >90 | >90
10 | KKKKKIIIIIDKKKK [D6] | >90 | >90 | >90 | >90 | >90 | >90 | >90 | >90
11 | KKKKKIIIIIKDDDD [D2] | >90 | >90 | >90 | >90 | >90 | >90 | >90 | >90
12 | KKKKKIIIIIKKKDD [D3] | >90 | >90 | >90 | >90 | >90 | >90 | >90 | >90
13 | KKKKKIIIIIKKKKD [D4] | >90 | >90 | >90 | >90 | >90 | >90 | >90 | >90
14 | KKKKKIIIIIKKKKK [D5] | 32 | 29 | 28 | 26 | >90 | 68 | 66 | 59
15 | KKKLLLLLKKK [S4] | >90 | >90 | >90 | 24 | >90 | >90 | >90 | 91
